Experimental data reported in PubChem BioAssay AID686978 (National Center for Advancing Translational Sciences (NCATS), 2013).
The campaign covered roughly 420,000 compounds. About 64,000 (15%) were called active. The shares of active, inactive and inconclusive entries below differ from those in the screen. The call rests on the fitted dose curve; in most records, active means well fitted inhibition curve with a large enough effect; inconclusive means small, poorly fitted or top-dose-only effect; inactive means flat fitted curve, though single readings scatter. Potencies of inconclusive entries are left out as doubtful fits.

Assay: qHTS for Inhibitors of human tyrosyl-DNA phosphodiesterase 1 (TDP1): qHTS in cells in absence of CPT; further: nearly all actives have a fitted effect of over 55% in size
Conditions: DT40 Tdp1-/- hTDP1 cells, no CPT, ATP luminescence, 48 h; series mostly up to 46.2 µM
Method in brief: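 Chicken DT40 Tdp1-/- cells complemented with human TDP1, screened without camptothecin (DMSO vehicle only), 400 cells/well. Compounds pin-transferred, cells incubated at 37 °C for at least 48 hr. Growth read as ATP-dependent luminescence (CellTiter-Glo, 30 min at RT).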
Potency means the concentration at half of the fitted maximal effect; tags describe the fitted curve by direction and shape.

| Structure (SMILES) | Potency |
| --- | --- |
| O=C1CC2(CCN(C(=O)c3cccc(Cl)c3)CC2)Oc2ccccc21 | inconclusive [inhibitor, single point] |
| O=C(CSc1ncccn1)N/N=C/c1cccs1 | inactive |
| C=CCn1c(SCc2csc(C)n2)nc2sc3c(c2c1=O)CCCCC3 | inconclusive [inhibitor, single point] |
| COc1cccc(N(CC(=O)NCCSc2ccc(Cl)cc2)S(C)(=O)=O)c1 | inactive |
| c1ccc(-c2nnc(C(c3ccccc3)c3ccccc3)o2)cc1 | active: 18.4 µM |
| Cc1cc(CNC(=O)Cc2ccccc2)c2ccccc2n1 | inconclusive [inhibitor, single point] |
| CCOCCCN1C(=O)CN(C2CCCCCC2)C(=O)C1c1ccc(OC)cc1 (configuration not stated) | inconclusive [inhibitor, partial curve] |
| CC(=O)NC(c1ccc(C)cc1)c1cc([N+](=O)[O-])c2cccnc2c1O (configuration not stated) | active: 14.6 µM |
| Cn1c(=O)c2c(ncn2CC(=O)Nc2cccc(C(F)(F)F)c2)n(C)c1=O | inconclusive [inhibitor, partial curve, poor fit] |
| CC(=O)N1CCN(C(=O)CSc2nc3c(cnn3-c3ccccc3)c(=O)[nH]2)CC1 | inactive |
| C[C@@H]1CN([C@H](C)CO)C(=O)Cc2cc(NS(=O)(=O)c3ccc(Cl)cc3)ccc2O[C@H]1CN(C)Cc1ccc(C(F)(F)F)cc1 | inconclusive [inhibitor, single point] |
| COc1ccc(Cn2c(SCc3ccc(C(=O)NC4CCCC4)cc3)nc3cccnc32)cc1 | active: 18.4 µM |
| Cc1ccc(NC(=O)c2ccc(NCCN)c([N+](=O)[O-])c2)cc1Cl | active: 20.6 µM |
| CCN(CC)C1=CC(=O)OC12CCCCC2 | inconclusive [inhibitor, single point] |
| CCOC(=O)c1cnc2c(C)c(-c3ccccc3)[nH]n2c1=O | inactive |
| COc1cc([C@@H]2CC=C(C(=O)O)[C@H](c3ccc(Cl)cc3)N2S(=O)(=O)c2ccc(C)cc2)cc(OC)c1OC | inconclusive [inhibitor, single point] |
| CC(Nc1nc(-c2cccnc2)nc2ccccc12)c1ccccc1 (configuration not stated) | inconclusive [inhibitor, single point] |
| OCC1(CCc2ccccc2)CCCN(CCCC(F)(F)F)C1 (configuration not stated) | inactive |
| CCOc1ccc(-n2c(=S)sc3c(=O)[nH]c(SCC(=O)N4CCC(C)CC4)nc32)cc1 | inconclusive [inhibitor, single point] |
| Cc1ccc(NC(=O)c2ccc(Nc3ccccc3F)nc2)cc1 | inconclusive [inhibitor, single point] |
| CCN(CC)CCN(C(=O)CCS(=O)(=O)c1ccccc1)c1nc2cc3c(cc2s1)OCO3 | active: 11.6 µM |
| C=CCOC(=O)C(C#N)c1nc2ccccc2nc1N1CCN(Cc2ccccc2)CC1 (configuration not stated) | active: 23.1 µM |
| COc1ccccc1CC(=O)N(CCC1=CCCCC1)c1c(N)n(Cc2ccccc2)c(=O)[nH]c1=O | inactive |
| CC(C)(C)C(=O)c1sc(Nc2ccccc2)nc1N | inconclusive [inhibitor, single point] |

| Structure (SMILES) | Potency |
| --- | --- |
| Cc1cccc(C)c1OCc1cc(C(=O)N2CCC(c3ccncc3)CC2)no1 | active: 5.17 µM |
| Cc1ccc(NNC(=O)c2sccc2Cl)c(C)c1 | inconclusive [inhibitor, single point] |
| O=C(C1CCCCC1)N1CCC(CO)(Cc2ccccc2Cl)CC1 | active: 20.6 µM |
| O=C(NCc1nc2ccccc2[nH]1)C1=C[C@@H](c2ccccc2)C[C@@H](OCc2ccc(CO)cc2)O1 | inconclusive [inhibitor, single point] |
| COc1ccccc1NC(=O)N(C)C[C@@H]1OCc2cnnn2CCCC(=O)N([C@H](C)CO)C[C@@H]1C | inactive |
| Cc1ccc(/C=N/N2CCN(Cc3cccc4ccccc34)CC2)o1 | inconclusive [inhibitor, single point] |
| NNC(=O)c1ccc(-c2cccc([N+](=O)[O-])c2)o1 | inactive |
| CCCCNc1c(-c2cccc(OC)c2)nc2nc(C)cc(C)n12 | active: 16.4 µM |
| O=C(O)CN1C(=O)c2cccc(Oc3ccc(Cl)cc3)c2C1=O | inactive |
| COc1ccc(NC(=O)CSc2nc3ccccc3c(=O)n2CCCN2CCCCC2)c(OC)c1 | inconclusive [inhibitor, single point] |
| COc1ccccc1NC(=O)CCNS(=O)(=O)c1ccc2c(c1)CC(C)N2C(=O)C1CC1 (configuration not stated) | inconclusive [inhibitor, single point] |
| Cc1ccc(-n2c(=O)[nH]c3c(C(N)=O)nc(-c4ccc(C)o4)nc32)cc1 | active: 13 µM |
| CCCOc1cccc(NC(=O)c2cc(C)oc2C)c1 | active: 16.4 µM |
| Cc1ccc(OCCCCn2ccnc2C)c(C)c1 | inconclusive [inhibitor, single point] |
| CCCCc1ccc(NC(=O)COC(=O)c2ccccc2OCC(=O)Nc2ccc(Br)cc2)cc1 | inconclusive [inhibitor, single point] |
| COC(=O)c1ccccc1NC(=S)NC(=O)COc1ccccc1Cl | inactive |
| COc1cccc(NC(=O)Cn2nnc(C(=O)Nc3cc(Cl)ccc3OC)c2N)c1 | inconclusive [inhibitor, full curve, poor fit] |
| Cc1noc(C)c1CC(=O)Nc1ccc2c(c1)OCO2 | inactive |
| CC1(C)OC(=O)C2=C(C[C@@H](C3CCCCC3)O[C@@H]2c2ccc(Cl)cc2)O1 | active: 20.6 µM |
| CCN(CC)CCn1c2c(c(SCC(=O)Nc3nc4ccccc4s3)nc1=O)CCC2 | inconclusive [inhibitor, single point] |
| COC(=O)c1ccc2nc(C3CCCCC3)c(Cc3ccccc3C(F)(F)F)n2c1 | inconclusive [inhibitor, single point] |
| CCN(C(=O)CCCC(=O)N(CC)c1ccccc1)c1ccccc1 | inactive |
| O=C(CSc1nnc2ncccn12)Nc1cccc2ccccc12 | inconclusive [inhibitor, single point] |
